Here are results for 22 molecules from article PMC12136788.

T1: UNK ZnF1-3 (human, UniProt Q9C0B0 31-174)
T1 sequence: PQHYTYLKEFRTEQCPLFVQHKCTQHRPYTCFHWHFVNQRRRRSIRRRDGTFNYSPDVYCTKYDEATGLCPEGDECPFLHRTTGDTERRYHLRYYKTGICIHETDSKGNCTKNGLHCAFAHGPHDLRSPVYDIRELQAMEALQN

B1: chr11:115359187:115359188:-_ENSMUSG00000020737_ENSMUST00000021083|mus_mus|motif|central (ssRNA)
RNA: GGGAGUUCUACAGUCCGACGAUCGUACAUAAGAGUCUCUACACAUCAGGAACCAGAUCAUCUGUUCUUAGAAACAGUCGGCGGCUCCAGUCUACUACUAGAAAACACUCAUGCCAUGGCGCACAGACCCAGGAGUCAGACAGACAACAGAGGAUUGAGCAUCA
B2: chr6:38652254:38652255:-_ENSG00000124767_ENST00000373365|hu_hu|hu_hu_hu_mus_False|68_88 (ssRNA)
RNA: GGGAGUUCUACAGUCCGACGAUCCGAGAACUUCAUAGCAGGGAAGUCACAUUUUUGCAGGAGGGUCAUUCCAAGAACCCUCGUAUAAAAAUCCAGGGACUUCUUAGGAUCCUUAAUUCUUAGCAUCGUUUGCUGCAGUAGAAACAACAGAGGAUUGAGCAUCA
B3: chr17:13113627:13113628:+_ENSMUSG00000068039_ENSMUST00000151287|mus_mus|FALSE|FALSE (ssRNA)
RNA: GGGAGUUCUACAGUCCGACGAUCAAGCUUCAUUUUUGUUUUCUGCAGGCUGAAGUCAAGACAAGCAAUUUUUGCAUUAACUAUUCUCUUGGGCAUGCCCUGAGAUCCAACCACACAAUUGAGCGCAUAGCCAUUGAUCAGCAUCAACAGAGGAUUGAGCAUCA
B4: chr9:45784209:45784210:-_ENSMUSG00000003131_ENSMUST00000172450|mus_mus|FALSE|FALSE (ssRNA)
RNA: GGGAGUUCUACAGUCCGACGAUCGGAGUCCCCCACAAACAGCACAUCUGGUUCUUUGUCUUUACAGUCCAGAACAAACCUAUUAUGCUGAGACAUCCACCUGUCAUCUCCUUGAAUAUCUUCUGCGGCAUGUGGAAUAGCUGCCAACAGAGGAUUGAGCAUCA
B5: chr1:39494447:39494448:+_ENSG00000168653_ENST00000372967|hu_mus|hu_hu_hu_mus_False|8_28 (ssRNA)
RNA: GGGAGUUCUACAGUCCGACGAUCGCACCGAGCGGCGUUCUUAUAGGGCUGUUCUGCGCUUAGGAACAUAAAGUGCCGGUCCAGGCUGAUGCCCAGCUUUUUCUGUAUGUCCAAGAAAGGCAUGGCUGAUGCUCGUGCUUGUCACAACAGAGGAUUGAGCAUCA
B6: chr12:112777701:112777702:+_ENSMUSG00000021282_ENSMUST00000166123|mus_hu|FALSE|FALSE (ssRNA)
RNA: GGGAGUUCUACAGUCCGACGAUCCGGUCUCUGACAUGAAAAAAUUUUCGCCACUGAGGCUGUAAGCUUCUUGCUUGUAUGCUAUGUUUCCCCAAUACAGGUACCAAUGGCUGCGCAACAGCUCUGAAAGAAAAAGGGAAAGAACAACAGAGGAUUGAGCAUCA
B7: chr3:10015032:10015033:+_ENSMUSG00000027533_ENSMUST00000029046|mus_mus|mus_mus_mus_hu_True|38_78 (ssRNA)
RNA: GGGAGUUCUACAGUCCGACGAUCGUUUUUACCAUCACAAGUGAUGAUACAAUCUGGCUUGGCCAUGGCGCCCAUUUUUCGCAAAGCUAUUCCCACUCCUAGCUCUUUCAUGUAUUCAUCAAAGCCUUUGCUGUCCACCAGGCGCAACAGAGGAUUGAGCAUCA
B8: chr18:54424204:54424205:+_ENSG00000091157_ENST00000357574|hu_hu|motif|central (ssRNA)
RNA: GGGAGUUCUACAGUCCGACGAUCCCAGGCGUGAAGGCAGGACAUAAACAGCUUUGCAGUGUCCAUAGUUAAAUUAUAUUCGGAUAGGGUCAAUGGCUUUGAUUUGCUGGACCGAUAUUCAGGAUCACUUUCUUCCCUUCUCUGCAACAGAGGAUUGAGCAUCA
B9: 125322355_125323946_4145_CDS_ENSMUSG00000030655_ENSMUST00000032891|mouse|control|control (ssRNA)
RNA: GGGAGUUCUACAGUCCGACGAUCGGAUUUCUGAAGCUCCCGUGGGUCUGGGCUUAGCAUGUUAGGAAGCAGCUUUUUCAUAUCUAUUUUUUCUUUUGACCCUCCAGCAAGUAGAUUAAUAUUUUCUCCUGGUAAUAAUUCCAACAACAGAGGAUUGAGCAUCA
B10: chr11:48616917:48616918:+_ENSMUSG00000020372_ENSMUST00000020640|mus_hu|FALSE|FALSE (ssRNA)
RNA: GGGAGUUCUACAGUCCGACGAUCGACGAUGAUAGGGUUGCUGCUGUUGGGCGAGAAGCGGACACAAGACACCCACUCUGAGUGGCUCUCAUCCUGGACAGUGUAUUUGCACACACCCAGGGUAUUCCAUAGCUUGAUGGUUUUCAACAGAGGAUUGAGCAUCA
B11: chr1:220379288:220379289:-_ENSG00000118873_ENST00000358951|hu_mus|motif|central (ssRNA)
RNA: GGGAGUUCUACAGUCCGACGAUCUGAUGCUGCAGCUUUUGCUACUUGGUUUCGACAGGCUCGAAGAGACUGAAAGAGACGGAAUCCAUCAAUCGUCACAAUGGCGGCUGGAUAUAAGAUGCUCAGUUCUUCAUUCUGCUCAGUCAACAGAGGAUUGAGCAUCA
B12: chr8:104447970:104447971:+_ENSG00000164934_ENST00000297579|hu_hu|hu_hu_hu_mus_False|1_18 (ssRNA)
RNA: GGGAGUUCUACAGUCCGACGAUCAUACACUUCCCUGCUUCGGCUCUUGUCCACAGGAAAGAUUCUAAUAGACUUAUCAAAGCUGGCAGACACAAAUUCCUUCCCAGUGGGAGAGUAAUCCACAUCAAGUACUGCAGAUACAUGCAACAGAGGAUUGAGCAUCA
B13: chr16:33496766:33496767:+_ENSMUSG00000022811_ENSMUST00000165418|mus_mus|FALSE|FALSE (ssRNA)
RNA: GGGAGUUCUACAGUCCGACGAUCUGAUCCAACAUUCUCUGACUGGGUGACUUCAGGUACAUCGGAAGAAUUGAUUGAUAUGCUAGAAGUCACUUCAGUAUCUGCAACGCUGAAGGAAAUCUCAUGCUGUCCAUUAGGUUUGUGCAACAGAGGAUUGAGCAUCA
B14: 155537933_155538053_2874_CDS_ENSG00000184863_ENST00000401878|human|control|control (ssRNA)
RNA: GGGAGUUCUACAGUCCGACGAUCAUGUUUCAGUGCUUUCAUCUGUUGUCCUUGAUACUGCAUGUUGGCACUGGAUGGUACAAAAUUGGAUGUUUUGGGCUGAACGUUUGAAAUACUGACAUCCUGGUUUUUAACAAGAAGUCUCAACAGAGGAUUGAGCAUCA
B15: chr12:39763582:39763583:-_ENSG00000139116_ENST00000544797|hu_mus|hu_hu_hu_mus_False|28_88 (ssRNA)
RNA: GGGAGUUCUACAGUCCGACGAUCCUCUAGGAACUGGGCAUUCACUUUAAAAUCUGGAGGGGGCAGCCCGUUUUUAAUCGCUGAGGUCUUUUUCUCAUCAAUACUCUUAAAAAGGUGUCUAACAGCACGAGAGAUGAUGCCCUGCAACAGAGGAUUGAGCAUCA
B16: chr16:45382771:45382772:-_ENSMUSG00000022661_ENSMUST00000163230|mus_mus|mus_mus_mus_hu_True|68_68 (ssRNA)
RNA: GGGAGUUCUACAGUCCGACGAUCCUGGGUCAUGUUAUAAGACAAAUGGACAGGGAGGGCAUGCUUCUGUAAAGAUGUGAGCUAUUGUCUAAGACUAACAAUAUUUAUCUAGCUAUAAAAAUAAGUUAAAUGAAUAAGUUAAGACAACAGAGGAUUGAGCAUCA
B17: chr7:134094464:134094465:+_ENSMUSG00000030683_ENSMUST00000106335|mus_mus|motif|central (ssRNA)
RNA: GGGAGUUCUACAGUCCGACGAUCCUCGCUGUCACUUUCCCUCUGCGUCCUUUUAUCUUUUCCUUUAAUUUUGCUUUCCUGCGGAGGGUCGGCAAAGGAAGGCAAAUUUUCUUCCUUUGGGAUGGAGAAGCAGAAUUGGCCUAGCAACAGAGGAUUGAGCAUCA
B18: chrX:71549762:71549763:+_ENSMUSG00000019087_ENSMUST00000019231|mus_mus|mus_mus_mus_hu_False|28_78 (ssRNA)
RNA: GGGAGUUCUACAGUCCGACGAUCAAACCCGUGUACUUCUUAUUGUUAGCACAACAUUCCCCCCCAACGAUAACGACAGCCAAGCAGGACAGACAGUUAAGUAGUACUUCCACACCUCCAAACUCAGGGAGCCCUAUAACCUUACAACAGAGGAUUGAGCAUCA
B19: chr8:117878989:117878990:-_ENSG00000164754_ENST00000297338|hu_hu|hu_hu_hu_mus_True|98_108 (ssRNA)
RNA: GGGAGUUCUACAGUCCGACGAUCCCAGAGGCCCUCUUUUACUGAGAACAAAAUGUGCGUAGAACAUUUUUCUUAUUUGCUAUGAAAUAAGAAGAAACCUGGAUCUCGGCGGGGAGCCGGGAGGGGUGGGUGGCCCGGGGAGGGCAACAGAGGAUUGAGCAUCA
B20: chr5:37680062:37680063:+_ENSMUSG00000029121_ENSMUST00000031004|mus_hu|mus_mus_mus_hu_False|78_88 (ssRNA)
RNA: GGGAGUUCUACAGUCCGACGAUCUUUGGGUGUAGCUGGUACCUCGUACACAGGCCCAUCGUACAUGCCCCUGGAAACCCCUUGCAAUCCAAAAACCUUAUUCCUGAUUUUGACGCGCUGGUACAGGUGCUCCGGGAACGCCUUCAACAGAGGAUUGAGCAUCA
B21: chr2:178096590:178096591:-_ENSG00000116044_ENST00000397062|hu_hu|motif|central (ssRNA)
RNA: GGGAGUUCUACAGUCCGACGAUCGAGGAUGCUGCUGAAGGAAUCCUCAAAAGCAUUAAGAAAAUGUGGACUACAGUUACCGGCUUCUUUUUCCAUUGAGGGUAUAGAUGAGUAAAAAUGAUAAUUGUCAACUUCUGUCAGUUUCAACAGAGGAUUGAGCAUCA
B22: chr1:78428520:78428521:-_ENSG00000162613_ENST00000370768|hu_mus|FALSE|FALSE (ssRNA)
RNA: GGGAGUUCUACAGUCCGACGAUCCCCUAAAGGAUUUACUGGGCCCCCAAUCUUCUCUUCUAUGAGUUGUCGAGCAUAGUCUAUUUGCUGUGGAGUGCCCCGAAUUGUAAAUAACUUCAUAUUGGGAUCUGCAUUAGGUGGAGGCAACAGAGGAUUGAGCAUCA

Some of the results follow.

The test has as its target T1, UNK ZnF1-3. The experiment in a line: nsRBNS (natural sequence RNA bind-n-seq); RBNS binding buffer (assumed for nsRBNS): 25 mM Tris pH 7.5, 150 mM KCl, 3 mM MgCl2, 0.01% Triton X-100, 500 ug/ml BSA, 20 U/ml SUPERase-In, 4 C; UNK is unkempt and MSI1 is Musashi-1; names of the RNAs are library labels; protein concentration not given here; high values mean tight binding.
Molecule B1 gave a binding signal of 1.19 enrichment R.

With B2, the binding signal turned out to be 0.795 enrichment R.

B3 registered a binding signal of 0.795 enrichment R.

B4 came in with a binding signal of 0.676 enrichment R.

As to B5, the binding signal was 0.726 enrichment R.

Molecule B6 yielded a binding signal of 1.7 enrichment R.

Molecule B7 showed a binding signal of 0.741 enrichment R.

For the molecule B8, the binding signal was 1.29 enrichment R.

The molecule B9 showed a binding signal of 1.02 enrichment R.

For B10, the binding signal is 0.582 enrichment R.

For the molecule B11, the binding signal turned out to be 0.89 enrichment R.

In turn, B12 registered a binding signal of 0.885 enrichment R.

In the case of B13, the binding signal came out at 0.618 enrichment R.

B14 showed a binding signal of 0.538 enrichment R.

Molecule B15 came in with a binding signal of 1.96 enrichment R.

For B16, the binding signal worked out at 1.9 enrichment R.

Take B17: the binding signal is 0.832 enrichment R.

B18 came in with a binding signal of 1.73 enrichment R.

As for B19, the binding signal is 1.96 enrichment R.

B20 had a binding signal of 0.78 enrichment R.

Take B21: the binding signal is 1.47 enrichment R.

Consider B22, for which the binding signal was determined as 1.65 enrichment R.
